This is one part of the list. Repeats are few or missing, and single values can be far off.
Key:
Assay in all cases: cell count relative to DMSO control; melanoma cells; higher = more viable cells
Details in all cases: library dose: standard library concentration; 72 h
A101D = system: A101D
A2058 = system: A2058
A375 = system: A375
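Note: cells treated in 1,536-well plates, then fixed and DAPI-stained, with nuclei counted from automated high-throughput microscope images.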

Compound	cell count (A101D)	cell count (A2058)	cell count (A375)
Cn1cnc2c(F)c(Nc3ccc(Br)cc3Cl)c(C(=O)NOCCO)cc21 [selumetinib] + CC(C)(C)c1cnc(CSc2cnc(NC(=O)C3CCNCC3)s2)o1 [SNS-032] (first compound 0.075 µM, partner dose 0.05 µM)	65.7%	80%	90.6%
COc1cc([C@@H]2c3cc4c(cc3[C@@H](O[C@@H]3O[C@@H]5CO[C@@H](C)O[C@H]5[C@H](O)[C@H]3O)[C@H]3COC(=O)[C@H]23)OCO4)cc(OC)c1O [etoposide] + CC(=O)O[C@@]12CO[C@@H]1C[C@H](O)[C@@]1(C)C(=O)[C@H](O)C3=C(C)[C@@H](OC(=O)[C@H](O)[C@@H](NC(=O)OC(C)(C)C)c4ccccc4)C[C@@](O)([C@@H](OC(=O)c4ccccc4)[C@H]21)C3(C)C [Docetaxel] (first compound 0.1 µM, partner dose 0.0005 µM)	58.1%	7.67%	45.4%
Cn1cnc2c(F)c(Nc3ccc(Br)cc3Cl)c(C(=O)NOCCO)cc21 [selumetinib] + O=C(O)c1ccc(-c2c[nH]c3ncc(-c4ccccc4)cc23)cc1C1CCCC1 [GSK650394] (first compound 0.075 µM, partner dose 0.8 µM)	68.2%	85.6%	93.2%
Cn1cnc2c(F)c(Nc3ccc(Br)cc3Cl)c(C(=O)NOCCO)cc21 [selumetinib] + CC(C)C[C@H](NC(=O)[C@H](Cc1ccccc1)NC(=O)c1cnccn1)B(O)O [Bortezomib] (first compound 0.075 µM, partner dose 0.005 µM)	12.1%	7.33%	82.3%
COc1cc([C@@H]2c3cc4c(cc3[C@@H](O[C@@H]3O[C@@H]5CO[C@@H](C)O[C@H]5[C@H](O)[C@H]3O)[C@H]3COC(=O)[C@H]23)OCO4)cc(OC)c1O [etoposide] + CC(C)(C)c1cnc(CSc2cnc(NC(=O)C3CCNCC3)s2)o1 [SNS-032] (first compound 0.1 µM, partner dose 0.05 µM)	78.1%	76.1%	71.8%
C[C@]1(O)C[C@@H](c2nc(-c3ccc4ccc(-c5ccccc5)nc4c3)c3c(N)nccn32)C1 + Cc1nc(Nc2ncc(C(=O)Nc3c(C)cccc3Cl)s2)cc(N2CCN(CCO)CC2)n1 [dasatanib] (first compound 2 µM, partner dose 0.02 µM)	78.6%	61.5%	60.5%
C[C@]1(O)C[C@@H](c2nc(-c3ccc4ccc(-c5ccccc5)nc4c3)c3c(N)nccn32)C1 + O=C(Nc1cccc(Cl)c1)Nc1ncc(CCNc2ncnc3ccsc23)s1 [SNS314] (first compound 2 µM, partner dose 0.004 µM)	91.5%	70.5%	83%
CCN(CC)CCNC(=O)c1c(C)[nH]c(/C=C2\C(=O)Nc3ccc(F)cc32)c1C [sunitinib] + C#Cc1cccc(Nc2ncnc3cc(OCCOC)c(OCCOC)cc23)c1 [erlotinib] (first compound 2 µM, partner dose 4 µM)	44.5%	51.7%	74.6%
CCN(CC)CCNC(=O)c1c(C)[nH]c(/C=C2\C(=O)Nc3ccc(F)cc32)c1C [sunitinib] + C=CCNC1=C2C[C@@H](C)C[C@H](OC)[C@H](O)[C@@H](C)/C=C(\C)[C@H](OC(N)=O)[C@@H](OC)/C=C\C=C(/C)C(=O)NC(=CC1=O)C2=O [Tanespimycin] (first compound 2 µM, partner dose 0.01 µM)	54.8%	39.2%	92.3%
Cn1cnc2c(F)c(Nc3ccc(Br)cc3Cl)c(C(=O)NOCCO)cc21 [selumetinib] + C[C@@H]1CCN(C(=O)CC#N)C[C@@H]1N(C)c1ncnc2[nH]ccc12 [CP690550] (first compound 0.075 µM, partner dose 5 µM)	89.2%	123%	81.2%
COc1cc([C@@H]2c3cc4c(cc3[C@@H](O[C@@H]3O[C@@H]5CO[C@@H](C)O[C@H]5[C@H](O)[C@H]3O)[C@H]3COC(=O)[C@H]23)OCO4)cc(OC)c1O [etoposide] + O=C(O)c1ccc(-c2c[nH]c3ncc(-c4ccccc4)cc23)cc1C1CCCC1 [GSK650394] (first compound 0.1 µM, partner dose 0.8 µM)	94.2%	81.8%	83.8%
C[C@]1(O)C[C@@H](c2nc(-c3ccc4ccc(-c5ccccc5)nc4c3)c3c(N)nccn32)C1 + CCCCCCCCc1ccc(CCC(N)(CO)CO)cc1 [fingolimod] (first compound 2 µM, partner dose 10 µM)	11%	13.8%	45.4%
COc1cc([C@@H]2c3cc4c(cc3[C@@H](O[C@@H]3O[C@@H]5CO[C@@H](C)O[C@H]5[C@H](O)[C@H]3O)[C@H]3COC(=O)[C@H]23)OCO4)cc(OC)c1O [etoposide] + O=c1cc(-c2cccc3c2Sc2ccccc2S3)oc(N2CCOCC2)c1 [KU55933] (first compound 0.1 µM, partner dose 5 µM)	83.4%	79.7%	84.5%
Cn1cnc2c(F)c(Nc3ccc(Br)cc3Cl)c(C(=O)NOCCO)cc21 [selumetinib] + CC1(C)NC(=O)N(c2ccc([N+](=O)[O-])c(C(F)(F)F)c2)C1=O [nilutamide] (first compound 0.075 µM, partner dose 5 µM)	66.9%	104%	97.3%
COc1cc([C@@H]2c3cc4c(cc3[C@@H](O[C@@H]3O[C@@H]5CO[C@@H](C)O[C@H]5[C@H](O)[C@H]3O)[C@H]3COC(=O)[C@H]23)OCO4)cc(OC)c1O [etoposide] + Cc1ccc(Nc2nccc(N(C)c3ccc4c(C)n(C)nc4c3)n2)cc1S(N)(=O)=O [Pazopanib] (first compound 0.1 µM, partner dose 2 µM)	90.1%	74.4%	57.5%
C[C@]1(O)C[C@@H](c2nc(-c3ccc4ccc(-c5ccccc5)nc4c3)c3c(N)nccn32)C1 + CO[C@H]1C[C@@H]2CC[C@@H](C)[C@@](O)(O2)C(=O)C(=O)N2CCCC[C@H]2C(=O)O[C@H]([C@H](C)C[C@@H]2CC[C@@H](OCCO)[C@H](OC)C2)CC(=O)[C@H](C)/C=C(\C)[C@@H](O)[C@@H](OC)C(=O)[C@H](C)C[C@H](C)/C=C/C=C/C=C/1C [everolimus] (first compound 2 µM, partner dose 0.1 µM)	72.8%	52.1%	66.1%
CCN(CC)CCNC(=O)c1c(C)[nH]c(/C=C2\C(=O)Nc3ccc(F)cc32)c1C [sunitinib] + O=C(O)c1ccc2c(c1)nc(Nc1cccc(Cl)c1)c1ccncc12 [CX4945] (first compound 2 µM, partner dose 2 µM)	63.5%	78.1%	66.8%
C[C@]1(O)C[C@@H](c2nc(-c3ccc4ccc(-c5ccccc5)nc4c3)c3c(N)nccn32)C1 + CN(c1ncccc1CNc1nc(Nc2ccc3c(c2)CC(=O)N3)ncc1C(F)(F)F)S(C)(=O)=O [PF562271] (first compound 2 µM, partner dose 0.4 µM)	73.6%	66.9%	48.9%
C[C@]1(O)C[C@@H](c2nc(-c3ccc4ccc(-c5ccccc5)nc4c3)c3c(N)nccn32)C1 + CC(=O)c1c(C)c2cnc(Nc3ccc(N4CCNCC4)cn3)nc2n(C2CCCC2)c1=O [palbociclib] (first compound 2 µM, partner dose 0.2 µM)	82.5%	118%	72.1%
Cn1cnc2c(F)c(Nc3ccc(Br)cc3Cl)c(C(=O)NOCCO)cc21 [selumetinib] + CS(=O)(=O)CCNCc1ccc(-c2ccc3ncnc(Nc4ccc(OCc5cccc(F)c5)c(Cl)c4)c3c2)o1 [lapatinib] (first compound 0.075 µM, partner dose 4 µM)	68.9%	83.9%	113%
C[C@]1(O)C[C@@H](c2nc(-c3ccc4ccc(-c5ccccc5)nc4c3)c3c(N)nccn32)C1 + Cn1c(=O)n(-c2ccc(C(C)(C)C#N)cc2)c2c3cc(-c4cnc5ccccc5c4)ccc3ncc21 [NVP-BEZ235] (first compound 2 µM, partner dose 0.02 µM)	67.1%	62.7%	71%
CCN(CC)CCNC(=O)c1c(C)[nH]c(/C=C2\C(=O)Nc3ccc(F)cc32)c1C [sunitinib] + Nc1ccn([C@@H]2O[C@H](CO)[C@@H](O)C2(F)F)c(=O)n1 [gemcitabine] (first compound 2 µM, partner dose 0.002 µM)	68.5%	57.5%	131%
CCN(CC)CCNC(=O)c1c(C)[nH]c(/C=C2\C(=O)Nc3ccc(F)cc32)c1C [sunitinib] + O=C(CCCCCCC(=O)Nc1ccccc1)NO [vorinostat] (first compound 2 µM, partner dose 0.4 µM)	62.4%	73.2%	102%
Cn1cnc2c(F)c(Nc3ccc(Br)cc3Cl)c(C(=O)NOCCO)cc21 [selumetinib] + CO[C@H]1C[C@@H]2CC[C@@H](C)[C@@](O)(O2)C(=O)C(=O)N2CCCC[C@H]2C(=O)O[C@H]([C@H](C)C[C@@H]2CC[C@@H](OCCO)[C@H](OC)C2)CC(=O)[C@H](C)/C=C(\C)[C@@H](O)[C@@H](OC)C(=O)[C@H](C)C[C@H](C)/C=C/C=C/C=C/1C [everolimus] (first compound 0.075 µM, partner dose 0.1 µM)	63.5%	57.1%	81.4%
Cn1cnc2c(F)c(Nc3ccc(Br)cc3Cl)c(C(=O)NOCCO)cc21 [selumetinib] + Clc1ccc(Nc2nnc(Cc3ccncc3)c3ccccc23)cc1 [vatalanib] (first compound 0.075 µM, partner dose 10 µM)	85.5%	72.5%	92.7%
COc1cc([C@@H]2c3cc4c(cc3[C@@H](O[C@@H]3O[C@@H]5CO[C@@H](C)O[C@H]5[C@H](O)[C@H]3O)[C@H]3COC(=O)[C@H]23)OCO4)cc(OC)c1O [etoposide] + CS(=O)(=O)CCNCc1ccc(-c2ccc3ncnc(Nc4ccc(OCc5cccc(F)c5)c(Cl)c4)c3c2)o1 [lapatinib] (first compound 0.1 µM, partner dose 4 µM)	80.5%	70%	81.7%
COc1cc([C@@H]2c3cc4c(cc3[C@@H](O[C@@H]3O[C@@H]5CO[C@@H](C)O[C@H]5[C@H](O)[C@H]3O)[C@H]3COC(=O)[C@H]23)OCO4)cc(OC)c1O [etoposide] + Cn1sc(=O)n(Cc2ccccc2)c1=O [TDZD-8] (first compound 0.1 µM, partner dose 2 µM)	93.4%	77.4%	65.8%
